The source of these data is PMC4336329 (PLoS ONE, 2015).

Out of some 310,000 compounds screened, about 14,000 (4.5%) showed an effect of 50% or more. The effect is printed as a negative number. Some of the results follow.
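Note: peak tail current of the secondary pulse compared with the same well before compound.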

The test deals with human ether-à-go-go-related gene (hERG) potassium channel (human, UniProt Q12809). As to the kind of experiment: primary screen, population patch clamp on CHO cells stably expressing hERG.
human ether-à-go-go-related gene (hERG) potassium channel, sequence (Q12809 whole entry, looked up): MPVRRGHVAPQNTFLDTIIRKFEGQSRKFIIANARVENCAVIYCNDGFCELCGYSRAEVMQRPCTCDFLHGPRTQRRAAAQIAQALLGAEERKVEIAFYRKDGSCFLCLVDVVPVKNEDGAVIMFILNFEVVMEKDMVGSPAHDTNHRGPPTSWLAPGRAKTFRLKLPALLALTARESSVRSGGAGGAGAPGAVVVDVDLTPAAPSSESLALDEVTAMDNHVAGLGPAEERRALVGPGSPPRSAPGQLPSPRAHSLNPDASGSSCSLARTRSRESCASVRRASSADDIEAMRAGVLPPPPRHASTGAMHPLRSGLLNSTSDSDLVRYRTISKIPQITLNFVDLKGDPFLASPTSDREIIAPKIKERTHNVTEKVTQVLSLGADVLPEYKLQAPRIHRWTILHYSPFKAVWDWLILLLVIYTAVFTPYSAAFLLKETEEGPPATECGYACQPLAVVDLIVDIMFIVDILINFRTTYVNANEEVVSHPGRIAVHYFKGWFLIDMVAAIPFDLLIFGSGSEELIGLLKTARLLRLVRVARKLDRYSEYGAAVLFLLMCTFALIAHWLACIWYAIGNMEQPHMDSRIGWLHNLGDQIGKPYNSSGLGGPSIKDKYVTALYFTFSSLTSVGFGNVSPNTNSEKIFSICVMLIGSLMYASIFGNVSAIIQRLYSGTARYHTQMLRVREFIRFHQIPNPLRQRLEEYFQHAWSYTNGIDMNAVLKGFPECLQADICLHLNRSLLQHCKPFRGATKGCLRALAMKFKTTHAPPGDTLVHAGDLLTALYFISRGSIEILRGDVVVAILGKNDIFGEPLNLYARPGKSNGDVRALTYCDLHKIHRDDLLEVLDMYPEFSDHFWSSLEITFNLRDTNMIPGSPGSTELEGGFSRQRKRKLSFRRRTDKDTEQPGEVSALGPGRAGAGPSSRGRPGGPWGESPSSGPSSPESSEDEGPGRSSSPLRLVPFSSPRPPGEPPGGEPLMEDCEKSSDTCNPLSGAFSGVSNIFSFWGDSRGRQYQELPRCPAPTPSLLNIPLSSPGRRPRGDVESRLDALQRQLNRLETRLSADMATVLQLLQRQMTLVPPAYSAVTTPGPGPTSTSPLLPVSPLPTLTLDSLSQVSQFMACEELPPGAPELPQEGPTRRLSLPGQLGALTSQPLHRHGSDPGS
Take `CCCCN(C(=O)c1ccc(C#N)cc1)c1c(N)n(CCC)c(=O)[nH]c1=O`: the “hERG current change (%, negative = inhibition) at 10uM” value amounted to 16.9%.
The value for `CCc1ccc(-c2nc(CN3CCC(C(=O)NCCc4ccc(OC)c(OC)c4)CC3)c(C)o2)cc1` was -76.2%; that for `COc1cc2ncnc(NCc3cccc(F)c3F)c2cc1OC` was -7.4%; that for `CCC(=O)N1N=C(c2ccc(C)o2)CC1c1ccc(Br)cc1` (stereo not shown) was -23.4%.
As to `O=C(OCc1nc2ccc(Cl)cc2n1CCO)c1ccc(O)cc1`, the “hERG current change (%, negative = inhibition) at 10uM” value was -34.5%.
The value for `CC(=O)N1CCCc2cc(S(=O)(=O)N3CCCC(C(=O)NCc4ccccc4)C3)ccc21` (stereo not shown) was 2.98%; that for `Cc1cc(C)c(S(=O)(=O)N2CCCC2=O)c(C)c1N(C)S(C)(=O)=O` was 4.44%; that for `COc1ccc(C2=CC(=O)OC3(CCCC3)O2)cc1` was -15.6%.
The value for `COc1cc(/C=C(\NC(=O)c2ccccc2)C(=O)Nc2nccs2)ccc1OC(C)=O` was 16.2%; that for `Cc1cc(C)c2ccc(C(=O)O)nc2c1O` was -1.62%; that for `CC(C)N1CCN(Cc2ccc(Sc3nncn3C)o2)CC1CCO` (stereo not shown) was 22.9%.
On to `COc1ccc(Nc2ccc(N3C(=O)CC(C)C3=O)cc2[N+](=O)[O-])cn1` (stereo not shown), for which the “hERG current change (%, negative = inhibition) at 10uM” value was found to be 11.5%.
The value for `S=c1[nH]nc(-c2cccnc2)n1/N=C/c1cccs1` was 11.7%; that for `Cc1cccc(OCCn2cc(/C=N/NC(=O)c3ccncc3)c3ccccc32)c1` was -4.79%.
To `Cc1[nH]c2ccccc2c1SCCNC(=O)c1ccc(S(=O)(=O)N2CCCC2)cc1` belongs -8.04%; to `CCN(CC)P(=O)(Nc1ccccc1Br)c1ccc(N(C)C)cc1NC(=O)c1ccco1` (stereo not shown), -6.45%; to `Cc1cc(NC(=O)c2cccs2)cc(-c2nc3ncccc3o2)c1O`, 5.27%.
To `Br.CCCCCN1C2=NCCN2c2ccccc21` belongs -71.4%.
For `COC(=O)c1cc(-c2ccccc2)n(CCN)c1C.Cl`, the “hERG current change (%, negative = inhibition) at 10uM” value is -3.56%.
The value for `Cc1ccc(C2NC(=O)NC3=C2CCc2ccccc23)cc1` (stereo not shown) was 2.59%; that for `CC(=O)N1N=C(c2ccco2)CC1c1ccc(Cl)o1` (stereo not shown) was 4.56%; that for `Cn1c(=O)[nH]c(=O)c2c1nc(N1CCOCC1)n2CCSc1nc2ccccc2[nH]1` was 11.6%.
The value for `CCOc1ccc(N(CC(=O)NC(C(C)C)C(C)C)S(=O)(=O)c2ccc(OC)c(OC)c2)cc1` was 38%.
The value for `C/C(=N/NC(=O)CC1N=C(Cc2ccccc2)NNC1=O)c1cccnc1` (stereo not shown) was 16.8%.
Consider `COc1ccc(-c2nc(CSCC(=O)N3CCN(C(=O)c4ccco4)CC3)c(C)o2)cc1OC`, for which the “hERG current change (%, negative = inhibition) at 10uM” value is -15.2%.
With `COc1ccc(CNC(=O)c2cccc(-c3ccc(C)c4ccccc34)n2)cc1`, the “hERG current change (%, negative = inhibition) at 10uM” value is given as -24%.
The value for `COc1cccc(OC)c1OCCCCn1cnc2ccccc2c1=O.O=C(O)C(=O)O` was -14.4%; that for `Oc1c(Br)cc(C2N=C(c3ccccc3Cl)NO2)cc1Br` (stereo not shown) was -2.5%; that for `CN(NC(=O)Nc1ccc(Cl)cc1)c1c(Cl)c(Cl)nn1C` was 9.5%.
The value for `CCOc1ccc(-n2c(C)nc3cc(C(=O)NCCN4CCOCC4)ccc32)cc1` was -11.6%.
To `CCOC(=O)N1CCC2(O)CCCCC2C1c1ccc(F)cc1` (stereo not shown) belongs 5.38%; to `CCOC(=O)CCc1c(C)c(C#N)c2[nH]c3ccccc3n2c1=O`, -15.5%; to `CC(C#N)(NC(=O)CN1CCN(S(=O)(=O)c2ccc(Br)cc2Cl)CC1)C1CC1` (stereo not shown), -40.9%.
Turning to `Clc1ccccc1CN1CCC(Cc2ccccc2)CC1`, the “hERG current change (%, negative = inhibition) at 10uM” value is on record as -12.1%.
The value for `COCCCNC(=O)[C@H](Cc1c[nH]c2ccccc12)NC(=O)OCc1ccccc1` was -2.63%; that for `CCO[C@H]1OC(C(=O)N2CCN(C)CC2)=C[C@@H](C)[C@@H]1CCCO` was 7.79%; that for `CC(C)Cn1c(SC(C)C(=O)NC2CC2)nnc1-c1ccccc1F` (stereo not shown) was -8.04%.
To `O=c1[nH]c(=O)n(-c2ccc(F)cc2)c2c1C(C(F)(F)F)(C(F)(F)F)N=C(c1ccc(F)cc1)N2` belongs 3.05%; to `COc1ccc([N+](=O)[O-])cc1/C=N/NC(=O)CNC(=O)C(c1ccccc1)c1ccccc1`, -2.6%.
To `Cc1nc2c(sc(=S)n2Cc2ccco2)c(=O)n1CC(=O)Nc1ccccc1` belongs -45.1%; to `Cc1ccc(N=Cc2ccc(N(C)C)cc2)cc1`, -2%; to `CCN(CC1CCCO1)C(=O)CCc1nnc(CCc2ccc(OC)cc2)o1` (stereo not shown), 10.9%.
On to `O=C(COc1ccc(S(=O)(=O)NC2CCCCC2)cc1)NCc1cccnc1`, for which the “hERG current change (%, negative = inhibition) at 10uM” value was determined as 2.91%.
On to `Cc1cc2c(c(=O)n1C)C(Cc1ccccc1)C(C#N)=C(N)O2` (stereo not shown), for which the “hERG current change (%, negative = inhibition) at 10uM” value is -8.26%.
The value for `CCN(CC)C(=O)c1ccc2nc3ccccc3nc2c1` was -6.37%; that for `COc1cc(C(=O)NNC(=O)C2CC=CCC2C(=O)O)cc(OC)c1OC` (stereo not shown) was -3.13%.
To `O=C(Oc1cccc(O)c1)C1CCCCC1` belongs 9.4%.
The value for `NCC(c1ccc(Cl)cc1Cl)c1c[nH]c2ccccc12` (stereo not shown) was 19%; that for `Cc1ccc(SCC(=O)Nc2oc(C)c3c(C)n[nH]c(=O)c23)cc1C` was -27.6%.
In the case of `Cc1ccc(CNC(=O)C2CCCN(S(=O)(=O)c3c(C)[nH]c(=O)[nH]c3=O)C2)cc1` (stereo not shown), the “hERG current change (%, negative = inhibition) at 10uM” value is -1.33%.
To `O=C(CN1C(=O)NC2(CCCc3ccccc32)C1=O)Nc1ccccc1OC(F)F` (stereo not shown) belongs -2.35%; to `COc1ccccc1N1C(=O)c2ccc(C(=O)Nc3cccc(C(C)=O)c3)cc2C1=O`, 1.69%; to `Cc1ccc(C)c(-n2[nH]c3c4c(ccc3c2=O)C(=O)c2ccccc2C4=O)c1`, -3.58%.
To `Cc1ccc(C(=O)N2CCN(C(=O)N3CCOCC3)CC2)cc1` belongs -5.64%.
In the case of `Cc1ccc(/C=C2\SC(N3CCCC3)=NC2=O)cc1`, the “hERG current change (%, negative = inhibition) at 10uM” value is listed as -22.4%.
To `COc1ccccc1C(=O)Nc1ccccc1SC(=O)c1ccccc1OC` belongs 24.5%; to `Fc1cccc(-n2cc(-c3ccccc3)c3c(=S)nc[nH]c32)c1`, 18%.
The value for `CC(C)Oc1cc(C(=O)NC2CCCCC2)c2ccccc2n1` was -3.64%.
The value for `O=C(Cc1ccccc1)Nc1ccc(C(=O)NCC2COc3ccccc3O2)cc1` (stereo not shown) was -1.22%.
As for `Cc1cccc(-c2cc(C(=O)Nc3cccnc3)c3ccccc3n2)c1`, the “hERG current change (%, negative = inhibition) at 10uM” value is reported as -21.2%.
To `O=C(NC(=S)N1CCN(C2CCCCC2)CC1)c1ccccc1` belongs -19.9%.
To `Cc1ccc(C(=O)Nc2ncc3c(Cl)cccc3n2)cc1` belongs 8.47%.
The value for `COCCSc1nnc(NS(=O)(=O)c2ccccc2)s1` was 9.74%.
`CCn1c(CCNC(=O)c2ccc(C)cc2)nnc1SCc1ccc(Cl)c(Cl)c1`: the “hERG current change (%, negative = inhibition) at 10uM” value is on record as -45.7%.
On to `C=CCc1cccc(C=Nc2c[nH]c(=O)[nH]c2=O)c1O`, for which the “hERG current change (%, negative = inhibition) at 10uM” value was found to be 15%.
For `COc1cccc(N2C(=O)CC(Nc3ccc(N4CCOCC4)cc3)C2=O)c1` (stereo not shown), the “hERG current change (%, negative = inhibition) at 10uM” value is -1.14%.
As for `CCNC(=O)NC(=O)C(C)OC(=O)C1CCN(S(=O)(=O)c2ccccc2F)CC1` (stereo not shown), the “hERG current change (%, negative = inhibition) at 10uM” value was -2.35%.
As to `O=c1cc(C(F)(F)F)nc(SCc2cccc3ccccc23)[nH]1`, the “hERG current change (%, negative = inhibition) at 10uM” value is given as 24%.
The value for `O=C1NC(=O)/C(=C/c2ccc(O)cc2)S1` was 14.4%.
To `N#Cc1ccc(S(=O)(=O)N2CCCN(c3ccc(C(F)(F)F)cn3)CC2)cc1` belongs -73.9%; to `O=c1[nH]c(-c2ccccc2)cnc1-c1ccccc1`, 17%; to `CC(=O)Nc1ccc(NC(=O)c2cccc3c2-c2ccccc2C3=O)cc1`, 5.91%.
To `COCC(=O)NC1CC2CCCC(C1)N2Cc1ccccc1` (stereo not shown) belongs -4.63%; to `CC1CCC(C(=O)NC(C(=O)N2CCC(N3CCCCC3)CC2)C(C)C)CC1` (stereo not shown), -8.26%.
As for `Cc1ccc(S(=O)(=O)N(CC(=O)NCc2cccnc2)c2ccc(F)cc2)cc1`, the “hERG current change (%, negative = inhibition) at 10uM” value is recorded as -61.2%.
The value for `O=C(NC1CCCC1)c1ccc(CS(=O)(=O)c2ccc(Cl)cc2)o1` was -9.03%; that for `CC(=O)c1ccc(OC2OCCOC2Oc2ccc(C(C)=O)cc2)cc1` (stereo not shown) was 1.57%; that for `O=C(Cc1ccccc1)NCCS(=O)c1ccc(Cl)cc1` (stereo not shown) was -8.77%.
To `CC(NC(=O)C(Cc1ccccc1)N1C(=O)C2C3CCC(C3)C2C1=O)c1ccccc1` (stereo not shown) belongs 10.8%; to `COc1cc(NC(=O)CCc2nnc3ccc(N4CCCCC4)nn23)cc(OC)c1OC`, 18.4%.
To `CC(=O)N1CCc2[nH]c3ccccc3c2C1` belongs 4.55%.
Take `COc1cc(NC(=O)CN(C)S(=O)(=O)c2cccs2)cc(OC)c1`: the “hERG current change (%, negative = inhibition) at 10uM” value came out at 12.5%.
To `C=CCNC(=O)CC(=O)N/N=C/c1ccccc1F` belongs 11.9%; to `COc1cccc2cc(C(C)N(CCCN3CCOCC3)C(=O)Nc3ccc(Cl)cc3)oc12` (stereo not shown), -46%.
As to `CCOC(=O)c1[nH]ncc1CN1CCCC(C(=O)c2ccc(OC)cc2C)C1` (stereo not shown), the “hERG current change (%, negative = inhibition) at 10uM” value is -49.4%.
The value for `COc1ccc(OCc2cc(C(=O)N(C)CCC3CCOCC3)no2)c(Cl)c1` was -42.1%; that for `N/C(=N\OC(=O)Cc1ccccc1[N+](=O)[O-])c1cccnc1` was -3.97%.
The value for `COc1ccc(/C=C(/NC(=O)c2ccco2)C(=O)N2CCCC2=O)cc1` was -8.68%.
